According to the supplement of paper PMC10126150:
Sequences with one replicate were seen in a single cluster, so their values are uncertain.

Test system: ATP
Experiment: switch fluorescence ratio, 500 uM ATP over buffer (Cy3 cluster intensity, sum of 5 cycles each) (fold (ratio)); higher = stronger signal-on switching upon ATP binding; sequences stand for … in TCGTCGGCAGCGTCAGATGTGTATAAGAGACAGTTTTTTTTTTTTTTTTTTTTTTTTT…TC
Conditions: aptamer strand: ATP DNA aptamer (quencher-CACCTGGGGGAGTATTGCGGAGGAAGG + anchor), 100 nM annealed; ATP concentration: 500 uM; one replicate
In short: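 Per cluster, summed Cy3 intensity from the target cycles was divided by that from the buffer cycles to give the fluorescence ratio, then averaged per switch-domain sequence. Clusters outside 100-1000 RFU were excluded. The Cy3-labelled switching-strand clusters, on a modified Illumina MiSeq flow-cell, were annealed to 100 nM quencher-labelled ATP aptamer and imaged in selection buffer, then after 15 min with 500 uM ATP at 22 °C, for five cycles with NaOH stripping and re-annealing between them.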
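Also: ATP exposure 15 min at 22 °C before imaging.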

| Sequence | switch fluorescence ratio |
| --- | --- |
| CTCATAAAA | 1.01 |
| CTCATATATT | 1.01 |
| CTCATGAGCT | 0.943 |
| CTCATGATTT | 1.05 |
| CTCATGCCGA | 1.08 |
| CTCATGTTTT | 0.976 |
| CTCCAAAAT | 3.48 |
| CTCCAACTTT | 1.06 |
| CTCCAATAAG | 1.31 |
| CTCCACGCCC | 1.67 |
| CTCCACGTGT | 1.07 |
| CTCCATTAGC | 1.28 |
| CTCCATTGCG | 1.05 |
| CTCCCATGTT | 1.08 |
| CTCCCTAGCA | 1.6 |
| CTCCGAACCT | 1.94 |
| CTCCGAATTA | 4.24 |
| CTCCGATCCG | 1.32 |
| CTCCGATGAA | 2.16 |
| CTCCGCCGGT | 3.96 |
| CTCCGGCAC | 1.55 |
| CTCCGTTTT | 3.28 |
| CTCCTCTATG | 1.17 |
| CTCCTTAGGT | 1.02 |
| CTCGAAATTG | 0.981 |
| CTCGAATGC | 1.34 |

| Sequence | switch fluorescence ratio |
| --- | --- |
| CTCGACTGAA | 1.01 |
| CTCGATAACA | 1.01 |
| CTCGATAAGC | 1.13 |
| CTCGATATGG | 1.05 |
| CTCGATTTGC | 1.04 |
| CTCGCCCTGG | 4.15 |
| CTCGCCGGTT | 1 |
| CTCGCCTACG | 1.19 |
| CTCGCGACAG | 1.04 |
| CTCGCGAGAC | 1.6 |
| CTCGCGCCCG | 1.06 |
| CTCGCGGGGG | 1.02 |
| CTCGCTAGTC | 1.75 |
| CTCGCTAGTT | 0.977 |
| CTCGCTGGGG | 1 |
| CTCGGACAGC | 1.02 |
| CTCGGATCG | 0.957 |
| CTCGGCAAAA | 3.96 |
| CTCGGCCCCG | 0.963 |
| CTCGGCGAAG | 1.07 |
| CTCGGGGATA | 1.04 |
| CTCGGTCTGC | 1.05 |
| CTCGGTCTTA | 1.01 |
| CTCGTCGTTT | 0.972 |
| CTCGTCTGTT | 0.995 |
| CTCGTCTTGA | 0.988 |

| Sequence | switch fluorescence ratio |
| --- | --- |
| CTCGTGATTA | 1.04 |
| CTCGTGTTAT | 1.01 |
| CTCGTTAACA | 1.02 |
| CTCGTTTTA | 0.966 |
| CTCTAGCACT | 1.83 |
| CTCTATAGTC | 1.04 |
| CTCTATTATA | 1 |
| CTCTATTTAA | 0.952 |
| CTCTCAACAT | 1.07 |
| CTCTCGCTC | 2.58 |
| CTCTCTAGC | 1.15 |
| CTCTGAGACA | 0.965 |
| CTCTGATCTT | 1.01 |
| CTCTGGCGGC | 1.14 |
| CTCTGGCTGC | 2.06 |
| CTCTTAGATA | 0.956 |
| CTCTTCCAGA | 0.972 |
| CTCTTCCGTT | 0.956 |
| CTCTTCGCGT | 1.08 |
| CTCTTGGGA | 1.04 |
| CTCTTTGTTT | 1.03 |
| CTGAACCTTA | 1.24 |
| CTGAAGAAAG | 1.04 |
| CTGAAGAATG | 0.991 |
| CTGAAGGTTA | 0.975 |
| CTGAATAGGC | 1.08 |

| Sequence | switch fluorescence ratio |
| --- | --- |
| CTGAATGCGG | 0.964 |
| CTGACAACCT | 2.23 |
| CTGACCAGTC | 1.2 |
| CTGACGGAGG | 1.04 |
| CTGACGGGCC | 1.33 |
| CTGACGTATA | 3.93 |
| CTGACGTTTC | 2 |
| CTGACTCTT | 1.03 |
| CTGACTGGAG | 1.03 |
| CTGAGAAGGG | 0.968 |
| CTGAGATAGA | 1.01 |
| CTGAGATGAT | 0.989 |
| CTGAGCGAT | 1.24 |
| CTGAGCGCGA | 1.1 |
| CTGAGCTAA | 1.46 |
| CTGAGCTCAA | 1.05 |
| CTGAGGTAAC | 2.09 |
| CTGAGGTGAG | 0.994 |
| CTGAGTACGG | 1.06 |
| CTGAGTAGTC | 1.01 |
| CTGAGTATTT | 0.984 |
| CTGATAGTGG | 0.961 |
| CTGATCCTTA | 0.988 |
| CTGATTTTGT | 1 |
| CTGCAAAGGT | 1.08 |
| CTGCAATAGG | 4.44 |

| Sequence | switch fluorescence ratio |
| --- | --- |
| CTGCAGTCTG | 1.04 |
| CTGCATCACT | 1.59 |
| CTGCCATGAG | 0.98 |
| CTGCCGTCGA | 0.992 |
| CTGCCTGTCA | 1.02 |
| CTGCGCCGAT | 1.06 |
| CTGCGGAATT | 1.13 |
| CTGCGGATAA | 1.12 |
| CTGCGGTCAG | 1 |
| CTGCGGTTTC | 1.04 |
| CTGCGTTTCA | 1.04 |
| CTGCTAACG | 1.05 |
| CTGCTCTTTT | 0.981 |
| CTGCTGATCC | 1.09 |
| CTGCTGGGCC | 1.07 |
| CTGGAACCGG | 1.02 |
| CTGGAAGGTC | 1.03 |
| CTGGAATGGT | 1.08 |
| CTGGACACGC | 1.05 |
| CTGGACTACA | 1.05 |
| CTGGAGTATG | 0.996 |
| CTGGATTTCT | 0.977 |
| CTGGCCTACA | 1.07 |
| CTGGCCTCCA | 1.06 |
| CTGGCGGCCA | 1.03 |
| CTGGCGGGGG | 1.05 |

| Sequence | switch fluorescence ratio |
| --- | --- |
| CTGGCGTTGC | 2.54 |
| CTGGCTATAT | 1.1 |
| CTGGCTCCTT | 1.01 |
| CTGGCTGCAG | 0.987 |
| CTGGGAACTA | 0.966 |
| CTGGGAATTT | 0.956 |
| CTGGGAGCAT | 1.53 |
| CTGGGATAAG | 1 |
| CTGGGATTCG | 0.987 |
| CTGGGCGGGC | 0.954 |
| CTGGGCGTCC | 0.988 |
| CTGGGGACTA | 1.02 |
| CTGGGGCCTG | 1.01 |
| CTGGGGGCCA | 1.02 |
| CTGGGGGCTA | 1 |
| CTGGGTGCTA | 1.05 |
| CTGGGTGGAT | 0.999 |
| CTGGGTGGC | 0.885 |
| CTGGGTGGGT | 1.02 |
| CTGGTAAGGG | 0.996 |
| CTGGTAGCGC | 1.04 |
| CTGGTCAAAA | 0.978 |
| CTGGTGACTT | 1 |
| CTGGTGAGA | 1.03 |
| CTGGTGGGTG | 0.988 |
| CTGGTTCGGG | 0.967 |

| Sequence | switch fluorescence ratio |
| --- | --- |
| CTGTAAGATT | 0.96 |
| CTGTAAGTAG | 1.05 |
| CTGTAATCAA | 1.07 |
| CTGTATCTT | 0.968 |
| CTGTATGGGG | 0.984 |
| CTGTCACAAA | 1.02 |
| CTGTCACCTG | 1 |
| CTGTCATCA | 1.03 |
| CTGTCATCTA | 1.01 |
| CTGTCCGCTG | 1.81 |
| CTGTCCTTGT | 1.01 |
| CTGTCTCAT | 0.984 |
| CTGTCTGGCG | 1.01 |
| CTGTGACTCA | 1.01 |
| CTGTGACTGT | 1.01 |
| CTGTGAGACT | 1.12 |
| CTGTGCCGAC | 1.05 |
| CTGTGGGAGT | 1.02 |
| CTGTGTGATA | 0.994 |
| CTGTGTGATC | 0.976 |
| CTGTGTTGG | 0.979 |
| CTGTTAACG | 1.01 |
| CTGTTAGTGT | 1.02 |
| CTGTTATTAT | 0.979 |
| CTGTTGAGAT | 0.969 |
| CTGTTGGGCG | 0.954 |

| Sequence | switch fluorescence ratio |
| --- | --- |
| CTGTTGGTG | 1.03 |
| CTGTTGTGTT | 0.977 |
| CTGTTTAGGT | 0.978 |
| CTGTTTCTGC | 1.02 |
| CTGTTTGACT | 0.988 |
| CTGTTTTCGG | 0.991 |
| CTTAAAGAAT | 1.38 |
| CTTAACGGGT | 0.946 |
| CTTAATACTG | 1.18 |
| CTTAATATGC | 1 |
| CTTACACTGA | 1.01 |
| CTTACAGC | 1.06 |
| CTTACCGCCA | 1.35 |
| CTTACTGCCA | 1.18 |
| CTTAGCACTG | 1.02 |
| CTTAGGGCT | 0.99 |
| CTTAGGTAA | 1.01 |
| CTTAGTGTCC | 1.01 |
| CTTATAAAAT | 0.949 |
